In a compilation of properties of binary mixtures (doi:10.3390/app10238342):
The densities may have been worked out from excess volumes.

Assay: xn = mol fraction of the nth substance listed
Conditions: 96.7 kPa

CS(C)=O + CC(=O)[O-].CCCCCCn1cc[n+](C)c1
x2 = 0
Conditions	mass density [kg/m3]
303.15 K	1091
308.15 K	1086
313.15 K	1081
318.15 K	1076
323.15 K	1071
328.15 K	1066
338.15 K	1056

CC(=O)[O-].CCCCCCn1cc[n+](C)c1 + CS(C)=O
mass density [kg/m3]
Conditions	x1 = 0.057	x1 = 0.187	x1 = 0.257	x1 = 0.341	x1 = 0.446	x1 = 0.58	x1 = 0.757	x1 = 0.868	x1 = 1
303.15 K	1083	1066	1059	1053	1044	1035	1024	1019	1014
308.15 K	1079	–	–	1050	1040	1031	1021	1016	1011
313.15 K	–	1058	1051	1046	1036	–	1017	1013	1008
318.15 K	1070	1054	1047	1042	–	1024	–	1010	1005
323.15 K	1065	1050	1043	1038	1029	1020	1011	1006	1002
328.15 K	1061	1046	1039	1034	1025	1017	1007	1003	999
333.15 K	1056	1042	1035	–	–	1013	1004	1000	995
338.15 K	1052	–	1031	1027	1018	1010	–	996	992.2
